{
  "source": "PubChem BioAssay AID624296",
  "about": "(National Center for Advancing Translational Sciences (NCATS), 2012)",
  "note": "The whole screen tested about 350,000 compounds, of which about 9,900 (2.8%) were called active. Inconclusive results, whose numbers are uncertain, are shown with a selection of clear calls. The call rests on the fitted dose curve; in most records, active means well fitted activation curve with a large enough effect; inconclusive means small, poorly fitted or top-dose-only effect; inactive means no such curve, though single readings can be large or run the other way. Potencies of inconclusive entries are left out as doubtful fits. Potency means the concentration at half of the fitted maximal effect; tags describe the fitted curve by direction and shape.",
  "data": [
    {"test": "A quantitative high throughput screen for small molecules that induce DNA re-replication in MCF 10a normal breast cells; further: nearly all actives have a fitted effect of over 50% in size; on activity, positive = re-replication: % of control where 0% means no effect.", "conditions": "MCF 10A DNA re-replication, Hoechst nuclear intensity, 48 h; activity, positive = re-replication: at 46.1 µM (top of the series)", "values": [
      {"smiles": "N#C/C(=C(/O)CN1CCN(c2ccccc2F)CC1)c1nc(-c2ccccc2)cs1", "Potency": "inconclusive [activator, partial curve, poor fit]"},
      {"smiles": "CCOC(=O)c1c(CSc2ccccc2)oc2cc(Br)c(O)c(CN(C)C)c12", "Potency": "inconclusive [activator, single point]"},
      {"smiles": "CCn1c(CN2CCCCC2)nc2cc(S(=O)(=O)N3CCCCC3)ccc21", "Potency": "inconclusive [activator, partial curve, poor fit]"},
      {"smiles": "CCCC(=O)Nc1ccc(Sc2ccc([N+](=O)[O-])cc2)cc1", "Potency": "inconclusive [activator, single point]"},
      {"smiles": "C=CCn1c(=NC(=O)c2ccco2)sc2cc(C(=O)OC)ccc21", "Potency": "inconclusive [activator, single point]"},
      {"smiles": "CCN(c1ccc(C(=O)CSc2nnc(C3CC3)n2C2CC2)cc1)S(C)(=O)=O", "Potency": "inconclusive [activator, partial curve, poor fit]"},
      {"smiles": "CCC(=O)c1ccc(OCC(=O)Nc2ccccc2C(=O)N2CCCCC2)cc1", "Potency": "inactive"},
      {"smiles": "O=c1[nH]c(N/N=C/c2ccccc2Br)nnc1-c1ccccc1", "Potency": "inconclusive [activator, partial curve, poor fit]"},
      {"smiles": "O=C(COC(=O)Cn1cnc2ccccc21)NCc1ccc(F)cc1", "Potency": "inconclusive [activator, partial curve, poor fit]"},
      {"smiles": "COc1ccc(CNC(=O)C(c2cccs2)N(Cc2ccco2)C(=O)Cc2cccs2)cc1", "note": "(stereo not given)", "Potency": "inconclusive [activator, single point]"},
      {"smiles": "Cc1ccc([C@@H]2[C@@H]3C(=O)N(C)C(=O)[C@@H]3[C@]3(Cc4ccccc4)C(=O)N(Cc4ccccc4)CC(=O)N23)o1", "Potency": "inactive"},
      {"smiles": "C#CCn1cc(/C=C2\\NC(=O)NC2=O)c2ccccc21", "Potency": "inconclusive [activator, full curve, poor fit]"},
      {"smiles": "COc1cccc(CNC(=O)c2nnn(CC(=O)Nc3ccc(C)c(C)c3)c2N)c1", "activity, positive = re-replication": "inactive: -189% [at 0.0737 µM]"},
      {"smiles": "O=S(=O)(c1ccc(OCC2CO2)cc1)c1ccc(OCC2CO2)cc1", "note": "(stereo not given)", "Potency": "inconclusive [activator, single point]"},
      {"smiles": "Cc1ccc(CCS(=O)(=O)c2ccc(C(C)(C)C)cc2)cn1", "Potency": "inconclusive [activator, partial curve, poor fit]"},
      {"smiles": "NC(=S)NN=C1CCCCCCCCCC1", "Potency": "inconclusive [activator, full curve, poor fit]"},
      {"smiles": "CN1CCN(CCCNC(=O)c2ccc3c(c2)N(Cc2ccc(F)cc2)CCS3)CC1", "Potency": "inconclusive [activator, full curve, poor fit]"},
      {"smiles": "O=[N+]([O-])c1ccc(CN2CCSCC2)cc1", "Potency": "inconclusive [activator, full curve, poor fit]"},
      {"smiles": "CN1N=C(C(C)(C)C)CC1=O", "Potency": "inconclusive [activator, full curve, poor fit]"},
      {"smiles": "Cc1ccccc1NC(=O)COC(=O)/C=C/c1cn(-c2ccccc2)nc1-c1cccnc1", "Potency": "inactive"},
      {"smiles": "Cc1cc2n(n1)C(c1cn(-c3ccccc3)nc1C)Nc1ccccc1-2", "note": "(stereo not given)", "Potency": "inactive"},
      {"smiles": "O=C(CCCn1c(=O)[nH]c2ccc(Br)cc2c1=O)NCc1ccc(Cl)cc1", "Potency": "inconclusive [activator, single point]"},
      {"smiles": "Cc1c(C(=O)NCCCN2CCOCC2)oc2ccc(S(=O)(=O)N3CCOCC3)cc12", "Potency": "inconclusive [activator, single point]"},
      {"smiles": "COc1ccc(N(C)S(=O)(=O)c2cccc(C(=O)Nc3cccc(C(=O)NC4CC4)c3)c2)cc1", "Potency": "inconclusive [activator, partial curve, poor fit]"},
      {"smiles": "N#CC1=C(N)C2=CCCC[C@H]2[C@H](c2ccccc2)C1(C#N)C#N", "Potency": "inconclusive [activator, single point]"},
      {"smiles": "CCOC(=O)N1CCC(NC(=O)c2ccc3c(Cl)c4c(nc3c2)CCCC4)CC1", "Potency": "inconclusive [activator, single point]"},
      {"smiles": "O=S(=O)(Nc1ccc(-c2ccc3nncn3n2)cc1)c1cc(F)ccc1F", "Potency": "inactive"},
      {"smiles": "O=C(O)Cc1coc(-c2ccc(F)cc2)n1", "Potency": "inconclusive [activator, single point]"},
      {"smiles": "CCCC(=O)O[C@]1(C(=O)CO)CCC2[C@@H]3CCC4=CC(=O)CC[C@]4(C)C3C(O)C[C@]21C", "note": "(stereo not given in full)", "Potency": "inactive"},
      {"smiles": "CCO[C@@H]1OC(C(=O)N2CCCCCCC2)=C[C@H](c2ccc(C(F)(F)F)cc2)[C@H]1CCCO", "Potency": "inconclusive [activator, full curve, poor fit]"},
      {"smiles": "COc1ccc(CCn2c(=N)c(C(=O)NCCN3CCOCC3)cc3c(=O)n4ccccc4nc32)cc1OC", "Potency": "inactive"},
      {"smiles": "CCOC(=O)/C=C/C(=O)OCC(=O)Nc1ccc(Cl)cc1Cl", "Potency": "inconclusive [activator, single point]"},
      {"smiles": "CC(C)NC(=O)c1ccccc1NC(=O)C1COc2ccccc2O1", "note": "(stereo not given)", "Potency": "inconclusive [activator, partial curve, poor fit]"},
      {"smiles": "CCOc1ccc2c(c1)C(C)=CC(C)(C)N2S(=O)(=O)c1ccc(NC(C)=O)cc1", "Potency": "inconclusive [activator, full curve, poor fit]"},
      {"smiles": "CCCCC/C=C\\C/C=C\\CCCCCCCC(=O)O", "Potency": "inconclusive [activator, partial curve, poor fit]"},
      {"smiles": "COc1ccc(-c2cc(-c3ccc(OC)cc3)[nH]n2)cc1", "Potency": "inconclusive [activator, partial curve, poor fit]"},
      {"smiles": "Cc1cc(C)c(C(=O)CSC2=NC(N)=C(C#N)C3(CCCCC3)C2C(N)=O)cc1C", "note": "(stereo not given)", "Potency": "inconclusive [activator, partial curve, poor fit]"},
      {"smiles": "CCCCC(CC)C(=O)O", "note": "(stereo not given)", "Potency": "inactive"},
      {"smiles": "Oc1ccc(C=NN=C2c3ccccc3-c3ccccc32)c(O)c1", "Potency": "inactive"},
      {"smiles": "COc1cc2c(=O)n(CCC(=O)NCC3CCCO3)c(=O)n(CC(=O)Nc3ccc(F)cc3)c2cc1OC", "note": "(stereo not given)", "activity, positive = re-replication": "inconclusive: -36.2% [activator]"}
    ]}
  ]
}
